{"source": "paper PMC9911399", "about": "“Two distinct binding modes provide the RNA-binding protein RbFox with extraordinary sequence specificity”", "binders": {"B1": {"name": "CAAAUGG (DNA:RNA)", "RNA": "GGGAGACCGGAAUUCAGAUUGUCCCAAAUGGUUAAAUCCCGUCGUAGCCACCA", "DNA 1": "CAATCTGAATTCCGGTCTCCC", "DNA 2": "TGGTGGCTACGACGGGATT"}, "B2": {"name": "UCUGAAG (DNA:RNA)", "RNA": "B1 RNA with C25U, A26C, A27U, A28G, U29A, G30A", "DNA 1": "CAATCTGAATTCCGGTCTCCC", "DNA 2": "TGGTGGCTACGACGGGATT"}, "B3": {"name": "CUUUAGA (DNA:RNA)", "RNA": "B1 RNA with A26U, A27U, A28U, U29A, G31A", "DNA 1": "CAATCTGAATTCCGGTCTCCC", "DNA 2": "TGGTGGCTACGACGGGATT"}, "B4": {"name": "UGGACCG (DNA:RNA)", "RNA": "B1 RNA with C25U, A26G, A27G, U29C, G30C", "DNA 1": "CAATCTGAATTCCGGTCTCCC", "DNA 2": "TGGTGGCTACGACGGGATT"}, "B5": {"name": "AGGUCUG (DNA:RNA)", "RNA": "B1 RNA with C25A, A26G, A27G, A28U, U29C, G30U", "DNA 1": "CAATCTGAATTCCGGTCTCCC", "DNA 2": "TGGTGGCTACGACGGGATT"}, "B6": {"name": "UCCGUAA (DNA:RNA)", "RNA": "B1 RNA with C25U, A26C, A27C, A28G, G30A, G31A", "DNA 1": "CAATCTGAATTCCGGTCTCCC", "DNA 2": "TGGTGGCTACGACGGGATT"}, "B7": {"name": "UUUUAUA (DNA:RNA)", "RNA": "GGGAGACCGGAAUUCAGAUUGUCCUUUUAUAUUAAAUCCCGUCGUAGCCACCA", "DNA 1": "CAATCTGAATTCCGGTCTCCC", "DNA 2": "TGGTGGCTACGACGGGATT"}, "B8": {"name": "AAAUACU (DNA:RNA)", "RNA": "B1 RNA with C25A, A28U, U29A, G30C, G31U", "DNA 1": "CAATCTGAATTCCGGTCTCCC", "DNA 2": "TGGTGGCTACGACGGGATT"}, "B9": {"name": "CACCGGG (DNA:RNA)", "RNA": "B1 RNA with A27C, A28C, U29G", "DNA 1": "CAATCTGAATTCCGGTCTCCC", "DNA 2": "TGGTGGCTACGACGGGATT"}, "B10": {"name": "AGGCUGA (DNA:RNA)", "RNA": "B1 RNA with C25A, A26G, A27G, A28C, G31A", "DNA 1": "CAATCTGAATTCCGGTCTCCC", "DNA 2": "TGGTGGCTACGACGGGATT"}, "B11": {"name": "CUGCCUU (DNA:RNA)", "RNA": "B7 RNA with U25C, U27G, U28C, A29C, A31U", "DNA 1": "CAATCTGAATTCCGGTCTCCC", "DNA 2": "TGGTGGCTACGACGGGATT"}, "B12": {"name": "AGGAGAA (DNA:RNA)", "RNA": "B1 RNA with C25A, A26G, A27G, U29G, G30A, G31A", "DNA 1": "CAATCTGAATTCCGGTCTCCC", "DNA 2": "TGGTGGCTACGACGGGATT"}, "B13": {"name": "UUAAGCG (DNA:RNA)", "RNA": "B1 RNA with C25U, A26U, U29G, G30C", "DNA 1": "CAATCTGAATTCCGGTCTCCC", "DNA 2": "TGGTGGCTACGACGGGATT"}, "B14": {"name": "GCAGUGA (DNA:RNA)", "RNA": "B1 RNA with C25G, A26C, A28G, G31A", "DNA 1": "CAATCTGAATTCCGGTCTCCC", "DNA 2": "TGGTGGCTACGACGGGATT"}, "B15": {"name": "GGCCGGU (DNA:RNA)", "RNA": "B1 RNA with C25G, A26G, A27C, A28C, U29G, G31U", "DNA 1": "CAATCTGAATTCCGGTCTCCC", "DNA 2": "TGGTGGCTACGACGGGATT"}, "B16": {"name": "UAGGGGA (DNA:RNA)", "RNA": "B1 RNA with C25U, A27G, A28G, U29G, G31A", "DNA 1": "CAATCTGAATTCCGGTCTCCC", "DNA 2": "TGGTGGCTACGACGGGATT"}, "B17": {"name": "ACAGCCG (DNA:RNA)", "RNA": "B1 RNA with C25A, A26C, A28G, U29C, G30C", "DNA 1": "CAATCTGAATTCCGGTCTCCC", "DNA 2": "TGGTGGCTACGACGGGATT"}, "B18": {"name": "GUGCUAG (DNA:RNA)", "RNA": "B1 RNA with C25G, A26U, A27G, A28C, G30A", "DNA 1": "CAATCTGAATTCCGGTCTCCC", "DNA 2": "TGGTGGCTACGACGGGATT"}, "B19": {"name": "GUCGGUC (DNA:RNA)", "RNA": "B7 RNA with U25G, U27C, U28G, A29G, A31C", "DNA 1": "CAATCTGAATTCCGGTCTCCC", "DNA 2": "TGGTGGCTACGACGGGATT"}, "B20": {"name": "ACGGUAU (DNA:RNA)", "RNA": "B1 RNA with C25A, A26C, A27G, A28G, G30A, G31U", "DNA 1": "CAATCTGAATTCCGGTCTCCC", "DNA 2": "TGGTGGCTACGACGGGATT"}, "B21": {"name": "UGCUACG (DNA:RNA)", "RNA": "B7 RNA with U26G, U27C, U30C, A31G", "DNA 1": "CAATCTGAATTCCGGTCTCCC", "DNA 2": "TGGTGGCTACGACGGGATT"}, "B22": {"name": "GCUUAGA (DNA:RNA)", "RNA": "B7 RNA with U25G, U26C, U30G", "DNA 1": "CAATCTGAATTCCGGTCTCCC", "DNA 2": "TGGTGGCTACGACGGGATT"}, "B23": {"name": "GGGAACG (DNA:RNA)", "RNA": "B1 RNA with C25G, A26G, A27G, U29A, G30C", "DNA 1": "CAATCTGAATTCCGGTCTCCC", "DNA 2": "TGGTGGCTACGACGGGATT"}, "B24": {"name": "ACCUACC (DNA:RNA)", "RNA": "B7 RNA with U25A, U26C, U27C, U30C, A31C", "DNA 1": "CAATCTGAATTCCGGTCTCCC", "DNA 2": "TGGTGGCTACGACGGGATT"}, "B25": {"name": "ACGACGU (DNA:RNA)", "RNA": "B1 RNA with C25A, A26C, A27G, U29C, G31U", "DNA 1": "CAATCTGAATTCCGGTCTCCC", "DNA 2": "TGGTGGCTACGACGGGATT"}, "B26": {"name": "UGCGAGC (DNA:RNA)", "RNA": "B7 RNA with U26G, U27C, U28G, U30G, A31C", "DNA 1": "CAATCTGAATTCCGGTCTCCC", "DNA 2": "TGGTGGCTACGACGGGATT"}, "B27": {"name": "UUCAAUA (DNA:RNA)", "RNA": "B7 RNA with U27C, U28A", "DNA 1": "CAATCTGAATTCCGGTCTCCC", "DNA 2": "TGGTGGCTACGACGGGATT"}, "B28": {"name": "AACACUC (DNA:RNA)", "RNA": "B1 RNA with C25A, A27C, U29C, G30U, G31C", "DNA 1": "CAATCTGAATTCCGGTCTCCC", "DNA 2": "TGGTGGCTACGACGGGATT"}, "B29": {"name": "GCGAUAC (DNA:RNA)", "RNA": "B1 RNA with C25G, A26C, A27G, G30A, G31C", "DNA 1": "CAATCTGAATTCCGGTCTCCC", "DNA 2": "TGGTGGCTACGACGGGATT"}, "B30": {"name": "GCAAUAU (DNA:RNA)", "RNA": "B1 RNA with C25G, A26C, G30A, G31U", "DNA 1": "CAATCTGAATTCCGGTCTCCC", "DNA 2": "TGGTGGCTACGACGGGATT"}, "B31": {"name": "CCCCUGC (DNA:RNA)", "RNA": "B1 RNA with A26C, A27C, A28C, G31C", "DNA 1": "CAATCTGAATTCCGGTCTCCC", "DNA 2": "TGGTGGCTACGACGGGATT"}}, "note": "Positions count from the first letter of the chain named. This is one part of the list.", "data": [{"molecular_target": "T1, RBFOX1 RRM (Homo sapiens, UniProt Q9NWB1 109-208)", "T1 sequence": "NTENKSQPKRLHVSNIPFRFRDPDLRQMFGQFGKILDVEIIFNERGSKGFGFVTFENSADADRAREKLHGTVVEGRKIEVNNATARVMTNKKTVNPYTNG", "assay": "EMSA; HiTS-Eq, 1 nM pool, 10 min; buffer printed only for the single-RNA assays: 10 mM Tris pH 7.5, 150 mM NaCl, 3.4 mM EDTA, 0.001% NP-40, 30 C", "conditions": "tags: His6 N-terminal (pET28a); label: 5' 32P", "outline": "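Purified RbFox RRM (wild type or mutant) was equilibrated for 10 min in 50 µL with 1 nM of a 5′-radiolabelled pool of RNA with 7 randomized nucleotides, its flanks annealed to DNA oligonucleotides, across increasing protein concentrations. Free RNA was separated by 8% native PAGE, excised, reverse-transcribed, PCR-barcoded and sequenced on an Illumina HiSeq 2500. Relative association constants came from read-count changes of each variant against the control reaction, normalised to the cognate motif.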", "values": [{"binder": "B1", "binding signal": "0.00705 KA relative to UGCAUGU"}, {"binder": "B2", "binding signal": "0.0166 KA relative to UGCAUGU"}, {"binder": "B3", "binding signal": "0.00768 KA relative to UGCAUGU"}, {"binder": "B4", "binding signal": "0.0269 KA relative to UGCAUGU"}, {"binder": "B5", "binding signal": "0.0219 KA relative to UGCAUGU"}, {"binder": "B6", "binding signal": "0.00371 KA relative to UGCAUGU"}, {"binder": "B7", "binding signal": "0.0021 KA relative to UGCAUGU"}, {"binder": "B8", "binding signal": "0.00265 KA relative to UGCAUGU"}, {"binder": "B9", "binding signal": "0.00514 KA relative to UGCAUGU"}, {"binder": "B10", "binding signal": "0.0153 KA relative to UGCAUGU"}, {"binder": "B11", "binding signal": "0.0102 KA relative to UGCAUGU"}, {"binder": "B12", "binding signal": "0.0164 KA relative to UGCAUGU"}, {"binder": "B13", "binding signal": "0.0153 KA relative to UGCAUGU"}, {"binder": "B14", "binding signal": "0.0116 KA relative to UGCAUGU"}, {"binder": "B15", "binding signal": "0.0275 KA relative to UGCAUGU"}, {"binder": "B16", "binding signal": "0.00576 KA relative to UGCAUGU"}, {"binder": "B17", "binding signal": "0.00101 KA relative to UGCAUGU"}, {"binder": "B18", "binding signal": "0.0307 KA relative to UGCAUGU"}, {"binder": "B19", "binding signal": "0.0118 KA relative to UGCAUGU"}, {"binder": "B20", "binding signal": "0.0105 KA relative to UGCAUGU"}, {"binder": "B21", "binding signal": "0.0218 KA relative to UGCAUGU"}, {"binder": "B22", "binding signal": "0.0147 KA relative to UGCAUGU"}, {"binder": "B23", "binding signal": "0.0367 KA relative to UGCAUGU"}, {"binder": "B24", "binding signal": "0.000543 KA relative to UGCAUGU"}, {"binder": "B25", "binding signal": "0.00603 KA relative to UGCAUGU"}, {"binder": "B26", "binding signal": "0.0213 KA relative to UGCAUGU"}, {"binder": "B27", "binding signal": "0.000788 KA relative to UGCAUGU"}, {"binder": "B28", "binding signal": "0.000919 KA relative to UGCAUGU"}, {"binder": "B29", "binding signal": "0.0101 KA relative to UGCAUGU"}, {"binder": "B30", "binding signal": "0.00254 KA relative to UGCAUGU"}, {"binder": "B31", "binding signal": "0.00603 KA relative to UGCAUGU"}]}]}
